Assay results published in patent publication US5721210A, “Cyclic cell adhesion modulation compounds” (priority 1995, dated 1998).
Not every detail of the peptide structures is certain; ends, links or a residue may be inferred. Numbered stars: 1 amine (or outer) side, 2 acyl side, 3 side chain; on linkers, the order of the positions; unused ones are H or OH. Bridge positions count the residues as written; N and C are the ends. Square brackets hold non-standard residues; d marks the D form. Peptide text beside a SMILES is read from it. * marks the point of attachment. Acetyl(1-adamantyl) = O=C(CC12CC3CC(CC(C3)C1)C2)*; Adamantane1carbonyl = O=C(C12CC3CC(CC(C3)C1)C2)*; Acetyl(1-naphthyl) = O=C(Cc1cccc2ccccc12)*; d2Nal = N[C@H](Cc1ccc2ccccc2c1)C(=O)O; Fmoc = O=C(OCC1c2ccccc2-c2ccccc21)*; X5 = CC1SC[C@@H](C(=O)[*:2])N1[*:1]; Hyp = O=C(O)[C@@H]1C[C@@H](O)CN1; hArg = N=C(N)NCCCC[C@H](N)C(=O)O; Pen = CC(C)(S)[C@H](N)C(=O)O; Thz = O=C(O)[C@@H]1CSCN1; Nva = CCC[C@H](N)C(=O)O; Aib = CC(C)(N)C(=O)O; GABA = NCCCC(=O)O; Mpa = O=C(O)CCS; Sar = CNCC(=O)O

System: U937 cells (fibronectin receptor) adhering to fibronectin-coated wells
Conditions: read-out: IC50 μM; U937 cells on fibronectin-coated wells, 60 min at 37° C.; concentration at which adhesion is inhibited to 50% of control

N=C(N)NCCC[C@@H]1NC(=O)[C@@H](NC(=O)CNC(=O)CC23CC4CC(CC(C4)C2)C3)CSSC[C@@H](C(N)=O)NC(=O)[C@@H]2CCCN2C(=O)[C@H](Cc2ccc(O)cc2)NC(=O)[C@H](CC(=O)O)NC(=O)CNC1=O [Peptide 97, (Ada)-GC*RGDYPC*-NH2] ({Acetyl(1-adamantyl)}-GCRGDYPC-NH2; disulfide 2-8) was tested. Which IC50 did it give?
The IC50 was 5 µM.

With CC(C)[C@@H]1NC(=O)[C@H](CC(=O)O)NC(=O)CNC(=O)[C@H](CCCNC(=N)N)NC(=O)[C@H](C(C)C)NC(=O)[C@@H](N)CSSC[C@@H](C(=O)O)NC1=O [Peptide 119, C*VRGDVC*] (H-CVRGDVC-OH; disulfide 1-7) as the compound, how does the IC50 read?
The IC50 was 561 µM.

For CC(=O)N[C@H]1CCC(=O)NCCCC[C@@H](C(=O)N[C@@H](CO)C(=O)N[C@@H](CO)C(=O)O)NC(=O)[C@@H]2CCCN2C(=O)[C@H](CO)NC(=O)[C@H](CC(=O)O)NC(=O)CNC(=O)[C@H](CCCNC(=N)N)NC(=O)CNC1=O [Peptide 18, Ac-E*GRGDSPK*SS] (Ac-EGRGDSPKSS-OH; lactam 1-8), which IC50 is on record?
The IC50 was 171 µM.

For N=C(N)NCCC[C@@H]1NC(=O)[C@@H](N)CSSC[C@@H](C(=O)O)NC(=O)[C@@H]2C[C@@H](O)CN2C(=O)[C@H](Cc2ccccc2)NC(=O)[C@H](CC(=O)O)NC(=O)CNC1=O [Peptide 74, C*RGDFHypC*] (H-CRGDF[Hyp]C-OH; disulfide 1-7), which IC50 is on record?
Its IC50 is 655 µM.

How did the IC50 turn out when N=C(N)NCCC[C@@H]1NC(=O)[C@@H](N)CSSC[C@@H](C(=O)O)NC(=O)[C@@H]2CCCN2C(=O)[C@H](Cc2ccc(O)cc2)NC(=O)[C@H](CC(=O)O)NC(=O)CNC1=O [Peptide 36, C*RGDYPC*] (H-CRGDYPC-OH; disulfide 1-7) was run?
The IC50 was 30 µM.

N=C(N)NCCC[C@@H]1NC(=O)[C@@H](NC(=O)CNC(=O)CC23CC4CC(CC(C4)C2)C3)CSSC[C@@H](C(N)=O)NC(=O)[C@@H]2CCCN2C(=O)[C@H](CO)NC(=O)[C@H](CC(=O)O)NC(=O)CNC1=O [Peptide 61, (Ada)-GC*RGDSPC*-NH2] ({Acetyl(1-adamantyl)}-GCRGDSPC-NH2; disulfide 2-8) was tested. Which IC50 did it give?
The IC50 was 86 µM.

With N=C(N)NCCC[C@@H]1NC(=O)[C@@H](N)CSSC[C@@H](C(=O)O)NC(=O)[C@@H](Cc2ccc3ccccc3c2)NC(=O)[C@H](Cc2ccccc2)NC(=O)[C@H](CC(=O)O)NC(=O)CNC1=O [Peptide 76, C*RGDF(d-Nal)C*] (H-CRGDF[d2Nal]C-OH; disulfide 1-7) as the compound, how does the IC50 read?
The IC50 was 428 µM.

For N=C(N)NCCC[C@@H]1NC(=O)[C@@H](NC(=O)CNC(=O)CNC(=O)OCC2c3ccccc3-c3ccccc32)CSSC[C@@H](C(=O)O)NC(=O)[C@@H]2CCCN2C(=O)[C@H](CO)NC(=O)[C@H](CC(=O)O)NC(=O)CNC1=O [Peptide 60, (FMOC)-GGC*RGDSPC*] (Fmoc-GGCRGDSPC-OH; disulfide 3-9), which IC50 is on record?
The IC50 was 53 µM.

N=C(N)NCCC[C@@H]1NC(=O)[C@@H](NC(=O)CNC(=O)CNC(=O)CC23CC4CC(CC(C4)C2)C3)CSSC[C@@H](C(N)=O)NC(=O)[C@@H]2CCCN2C(=O)[C@H](Cc2ccc(O)cc2)NC(=O)[C@H](CC(=O)O)NC(=O)CNC1=O (single isomer, unassigned) [Peptide 52, (Ada)-GGC*RGDYPC*-NH2] was tested. Which IC50 did it give?
Its IC50 is 15 µM.

With N=C(N)NCCC[C@@H]1NC(=O)[C@@H](NC(=O)CNC(=O)CNC(=O)C23CC4CC(CC(C4)C2)C3)CSSC[C@@H](C(N)=O)NC(=O)[C@@H]2CSCN2C(=O)[C@H](Cc2ccc(O)cc2)NC(=O)[C@H](CC(=O)O)NC(=O)CNC1=O [Peptide 53, (Ada-CA)-GGC*RGDY-(3-thioPro)-C*NH2] (Adamantane1carbonyl-GGCRGDY[Thz]C-NH2; disulfide 3-9) as the compound, how does the IC50 read?
The IC50 was 25 µM.

How did the IC50 turn out when N=C(N)NCCC[C@@H]1NC(=O)[C@@H](NC(=O)CNC(=O)CNC(=O)Cc2cccc3ccccc23)CSSC[C@@H](C(N)=O)NC(=O)[C@@H]2CSCN2C(=O)[C@H](Cc2ccccc2)NC(=O)[C@H](CC(=O)O)NC(=O)CNC1=O [Peptide 88, (NaphAc)-GGC*RGDF-(3-thioPro)C*-NH2] ({Acetyl(1-naphthyl)}-GGCRGDF[Thz]C-NH2; disulfide 3-9) was run?
Its IC50 is 83 µM.

With N=C(N)NCCC[C@@H]1NC(=O)[C@H](Cc2ccc(O)cc2)NC(=O)CCSSC[C@@H](C(=O)O)NC(=O)[C@@H]2CCCN2C(=O)[C@H](CO)NC(=O)[C@H](CC(=O)O)NC(=O)CNC1=O [Peptide 32, (Mpr*)YRGDSPC*] ([Mpa]YRGDSPC-OH; disulfide 1-8) as the compound, how does the IC50 read?
The IC50 was 240 µM.

With N=C(N)NCCC[C@@H]1NC(=O)[C@@H](N)CSSC[C@@H](C(=O)O)NC(=O)[C@@H]2CCCN2C(=O)[C@H](Cc2ccccc2)NC(=O)[C@H](CC(=O)O)NC(=O)CNC1=O [Peptide 50, C*RGDFPC*] (H-CRGDFPC-OH; disulfide 1-7) as the compound, how does the IC50 read?
Its IC50 is 35 µM.

Which IC50 does the source give for N=C(N)NCCC[C@H](NC(=O)CCCNC(=O)CCCNC(=O)[C@@H](N)CCCCN)C(=O)N[C@H]1CSSC[C@@H](C(=O)O)NC(=O)[C@@H]2CSCN2C(=O)[C@H](CC(=O)O)NC1=O [Peptide 129, K(AnB)-(AnB)-RC*D-(3-thioPro)C*] (H-K[GABA][GABA]RCD[Thz]C-OH; disulfide 5-8) here?
The IC50 was 66 µM.

With CC(C)[C@@H]1NC(=O)[C@H](CC(=O)O)NC(=O)CNC(=O)[C@H](CCCNC(=N)N)NC(=O)[C@H](Cc2ccc(O)cc2)NC(=O)[C@@H](N)CSSC[C@@H](C(=O)NC(C)(C)C(N)=O)NC(=O)[C@@H]2CCCN2C1=O [Peptide 45, C*YRGDVPC*-Aib-NH2] (H-CYRGDVPC[Aib]-NH2; disulfide 1-8) as the compound, how does the IC50 read?
Its IC50 is 106 µM.

CO[C@H](C)[C@@H]1NC(=O)[C@H](CC(=O)O)NC(=O)CNC(=O)[C@H](CCCNC(=N)N)NC(=O)CNC(=O)[C@@H](N)CSSC[C@@H](C(=O)O)NC(=O)[C@@H]2CCCN2C1=O [Peptide 29, C*GRGD[Thr(OCH3)]PC*] (H-CGRGDT(Me)PC-OH; disulfide 1-8) was tested. Which IC50 did it give?
The IC50 was 255 µM.

For CCC[C@H](NC(=O)[C@H](C)N)C(=O)N[C@@H](CO)C(=O)N[C@H]1CSSC[C@@H](C(=O)N[C@@H](C)C(N)=O)NC(=O)[C@@H]2CCCN2C(=O)[C@H](CO)NC(=O)[C@H](CC(=O)O)NC(=O)CNC(=O)[C@H](CCCNC(=N)N)NC(=O)CNC1=O [Peptide 28, A(norVal)SC*GRGDSPC*A-NH2] (H-A[Nva]SCGRGDSPCA-NH2; disulfide 4-11), which IC50 is on record?
Its IC50 is 632 µM.

How did the IC50 turn out when N=C(N)NCCC[C@H](N)C(=O)N[C@H]1CSSC[C@@H](C(=O)O)NC(=O)[C@H](Cc2ccccc2)NC(=O)[C@H](CC(=O)O)NC1=O [Peptide 100, RC*DFC*] (H-RCDFC-OH; disulfide 2-5) was run?
The IC50 was 438 µM.

How did the IC50 turn out when CC(C)C[C@@H]1NC(=O)[C@@H](N)CSSC(C)(C)[C@@H](C(N)=O)NC(=O)[C@@H]2CCCN2C(=O)[C@H](CO)NC(=O)[C@H](CC(=O)O)NC(=O)CNC(=O)[C@H](CCCNC(=N)N)NC1=O [Peptide 5, C*LRGDSP(Pen)*-NH2] (H-CLRGDSP[Pen]-NH2; disulfide 1-8) was run?
The IC50 was 1000 to 1500 µM.

How did the IC50 turn out when N=C(N)NCCC[C@@H]1NC(=O)CNC(=O)[C@@H](NC(=O)CC23CC4CC(CC(C4)C2)C3)CSSC[C@@H](C(N)=O)NC(=O)[C@@H]2CSCN2C(=O)[C@H](CO)NC(=O)[C@H](CC(=O)O)NC(=O)CNC1=O [Peptide 68, (Ada)-C*GRGDS-(3-thioPro)C*-NH2] ({Acetyl(1-adamantyl)}-CGRGDS[Thz]C-NH2; disulfide 1-8) was run?
The IC50 was 421 µM.

Which IC50 does the source give for N=C(N)NCCC[C@H](N)C(=O)N[C@H]1CSSC[C@@H](C(=O)O)NC(=O)[C@@H]2CSCN2C(=O)[C@H](CC(=O)O)NC1=O [Peptide 107, RC*D-(3-thioPro)C*] (H-RCD[Thz]C-OH; disulfide 2-5) here?
The IC50 was 4 µM.

How did the IC50 turn out when N=C(N)NCCC[C@@H]1NC(=O)[C@@H](NC(=O)CNC(=O)CNC(=O)CC23CC4CC(CC(C4)C2)C3)CSSC[C@@H](C(=O)O)NC(=O)[C@@H]2CCCN2C(=O)[C@H](Cc2ccc(O)cc2)NC(=O)[C@H](CC(=O)O)NC(=O)CNC1=O [Peptide 58, (Ada)-GGC*RGDYPC*] ({Acetyl(1-adamantyl)}-GGCRGDYPC-OH; disulfide 3-9) was run?
Its IC50 is 42 µM.

How did the IC50 turn out when N=C(N)NCCC[C@H](N)C(=O)N[C@H]1CSSC[C@@H](C(=O)O)NC(=O)[C@@H]2C[C@@H](O)CN2C(=O)[C@H](CC(=O)O)NC1=O [Peptide 99, RC*D(Hyp)C*] (H-RCD[Hyp]C-OH; disulfide 2-5) was run?
The IC50 was 41 µM.

With N=C(N)NCCC[C@@H]1NC(=O)[C@@H](NC(=O)CNC(=O)CNC(=O)CC23CC4CC(CC(C4)C2)C3)CSSC[C@@H](C(=O)O)NC(=O)[C@H](Cc2c[nH]c3ccccc23)NC(=O)[C@H](CC(=O)O)NC(=O)CNC1=O [Peptide 65, (Ada)-GGC*RGDWC*] ({Acetyl(1-adamantyl)}-GGCRGDWC-OH; disulfide 3-8) as the compound, how does the IC50 read?
The IC50 was 178 µM.

With N=C(N)NCCCC[C@H](N)C(=O)N[C@H]1CSSC[C@@H](C(=O)O)NC(=O)[C@@H]2CSCN2C(=O)[C@H](CC(=O)O)NC1=O [Peptide 115, HomoRC*D-(3-thioPro)C*] (H-[hArg]CD[Thz]C-OH; disulfide 2-5) as the compound, how does the IC50 read?
The IC50 was 100 µM.

For N=C(N)NCCC[C@@H]1NC(=O)[C@@H](N)CSSC[C@@H](C(N)=O)NC(=O)[C@@H]2CCCN2C(=O)[C@H](CO)NC(=O)[C@H](CC(=O)O)NC(=O)CNC1=O [Peptide 27, C*RGDSPC*-NH2] (H-CRGDSPC-NH2; disulfide 1-7), which IC50 is on record?
Its IC50 is 242 µM.

For N=C(N)NCCC[C@@H]1NC(=O)[C@@H](NC(=O)CNC(=O)CNC(=O)CC23CC4CC(CC(C4)C2)C3)CSSC[C@@H](C(=O)O)NC(=O)[C@@H]2CCCN2C(=O)[C@H](CO)NC(=O)[C@H](CC(=O)O)NC(=O)CNC1=O [Peptide 38, (Ada)-GGC*RGDSPC*] ({Acetyl(1-adamantyl)}-GGCRGDSPC-OH; disulfide 3-9), which IC50 is on record?
The IC50 was 45 µM.

With N=C(N)NCCC[C@H](NC(=O)C12CC3CC(CC(C3)C1)C2)C(=O)N[C@H]1CSSC[C@@H](C(=O)O)NC(=O)[C@@H]2CSCN2C(=O)[C@H](CC(=O)O)NC1=O [Peptide 108, (Ada-CA)-RC*D-(3-thioPro)C*] (Adamantane1carbonyl-RCD[Thz]C-OH; disulfide 2-5) as the compound, how does the IC50 read?
The IC50 was 4 µM.

How did the IC50 turn out when CC1SC[C@H]2C(=O)N[C@H](C(=O)O)CSSC[C@H](NC(=O)[C@H](CCCNC(=N)N)NC(=O)OCC3c4ccccc4-c4ccccc43)C(=O)N[C@@H](CC(=O)O)C(=O)N12 (stereo partly drawn) [Peptide 133, (FMOC)RC*D(MTC)C*] (Fmoc-RCD[X5]C-OH; disulfide 2-5) was run?
The IC50 was 387 µM.

For CN1CC(=O)N[C@@H](CCCNC(=N)N)C(=O)NCC(=O)N[C@@H](CC(=O)O)C(=O)N[C@@H](CO)C(=O)N2CCC[C@H]2C(=O)N[C@H](C(=O)O)CSSC[C@H](N)C1=O [Peptide 21, C*(Sar)RGDSPC*] (H-C[Sar]RGDSPC-OH; disulfide 1-8), which IC50 is on record?
The IC50 was 136 µM.
